Measured values from PubChem BioAssay AID504332 (National Center for Advancing Translational Sciences (NCATS), 2011).
The whole screen tested about 350,000 compounds, of which about 31,000 (8.9%) were called active. The inconclusive results got no clear call from the source; some entries with a clear call stand among them for comparison. The call rests on the fitted dose curve; in most records, active means well fitted inhibition curve with a large enough effect; inconclusive means small, poorly fitted or top-dose-only effect; inactive means no such curve, though single readings can be large or run the other way. Where the call is inconclusive, the potency comes from a doubtful curve fit.

Target: Histone-lysine N-methyltransferase EHMT2 (Homo sapiens) (UniProt Q96KQ7)
Sequence of UniProt Q96KQ7 (Q96KQ7 whole entry, looked up): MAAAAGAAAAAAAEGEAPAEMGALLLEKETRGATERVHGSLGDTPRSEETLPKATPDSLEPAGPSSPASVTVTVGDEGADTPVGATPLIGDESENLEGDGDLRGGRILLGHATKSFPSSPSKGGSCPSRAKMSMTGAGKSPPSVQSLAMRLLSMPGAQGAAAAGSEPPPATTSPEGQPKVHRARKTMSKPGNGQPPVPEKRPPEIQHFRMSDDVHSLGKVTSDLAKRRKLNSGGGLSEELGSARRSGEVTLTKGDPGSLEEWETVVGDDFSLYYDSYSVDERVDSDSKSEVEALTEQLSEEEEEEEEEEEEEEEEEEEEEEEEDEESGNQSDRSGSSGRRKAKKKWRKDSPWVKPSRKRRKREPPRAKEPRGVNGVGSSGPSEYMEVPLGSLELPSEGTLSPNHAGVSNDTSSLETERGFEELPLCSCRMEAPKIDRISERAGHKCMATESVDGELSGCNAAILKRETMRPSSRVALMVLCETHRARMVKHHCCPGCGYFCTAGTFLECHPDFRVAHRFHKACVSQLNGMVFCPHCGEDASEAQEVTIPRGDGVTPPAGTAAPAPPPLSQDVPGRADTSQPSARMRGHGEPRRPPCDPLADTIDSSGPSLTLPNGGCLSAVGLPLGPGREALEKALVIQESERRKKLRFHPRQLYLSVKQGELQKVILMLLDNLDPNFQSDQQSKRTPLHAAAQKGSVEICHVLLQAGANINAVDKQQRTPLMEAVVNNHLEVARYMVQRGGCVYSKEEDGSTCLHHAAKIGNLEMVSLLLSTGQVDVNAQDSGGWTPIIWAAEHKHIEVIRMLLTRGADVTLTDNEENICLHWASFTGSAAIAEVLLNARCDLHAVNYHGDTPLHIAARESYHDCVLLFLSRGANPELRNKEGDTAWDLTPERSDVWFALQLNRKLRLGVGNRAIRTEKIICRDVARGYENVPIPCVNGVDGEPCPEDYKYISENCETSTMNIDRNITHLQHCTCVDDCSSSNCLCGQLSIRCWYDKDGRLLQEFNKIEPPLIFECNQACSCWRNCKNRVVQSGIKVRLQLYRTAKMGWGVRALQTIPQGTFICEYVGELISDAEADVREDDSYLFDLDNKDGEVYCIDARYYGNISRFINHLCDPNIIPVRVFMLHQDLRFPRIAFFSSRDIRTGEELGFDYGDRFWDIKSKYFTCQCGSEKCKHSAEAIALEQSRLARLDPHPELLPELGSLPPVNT
Assay: qHTS Assay for Inhibitors of Histone Lysine Methyltransferase G9a; further: nearly all actives have a fitted effect of over 75% in size
Settings: G9a H3K9 monomethylation, AlphaScreen, 2 h; series mostly up to 59 µM
Summary of the method: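 Compounds were preincubated with 20 nM G9a for 15 min, after which biotinylated H3K9 peptide (500 nM) and SAM (20 uM) started a 2 h room-temperature reaction. Monomethylated product was quantified by antibody-based AlphaScreen chemiluminescence.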
Potency means the concentration at half of the fitted maximal effect; tags describe the fitted curve by direction and shape.

| Compound | Potency |
| --- | --- |
| O=C(N/N=C/c1cc2ccccc2nc1Cl)/C(=C/c1cccs1)NC(=O)c1ccccc1 | inconclusive: 14.1 µM [inhibitor, partial curve, poor fit] |
| CCOC(=O)C1(C)C=C(Nc2ccc(Br)cc2)C(=O)N1c1ccccc1 (stereo not drawn) | inconclusive: 2.24 µM [inhibitor, full curve, poor fit] |
| OCCC1CN(C2CCSCC2)CCN1C1CCCC1 (stereo not drawn) | inconclusive: 0.316 µM [inhibitor, partial curve, poor fit] |
| Cc1ccc(O)c(N=Nc2nccs2)c1 | inconclusive: 1.26 µM [inhibitor, partial curve, poor fit] |
| CCCN(CCC)S(=O)(=O)c1ccc(C(=O)NCc2ccco2)cc1 | inconclusive: 70.8 µM [inhibitor, partial curve, poor fit] |
| Cc1c(C(=O)N(Cc2ccc(N(C)C)cc2)C2CCS(=O)(=O)C2)oc2ccccc12 (stereo not drawn) | active: 12.6 µM |
| O=C(CCCn1c(=S)[nH]c2ccsc2c1=O)Nc1ccc2c(c1)OCO2 | inconclusive: 31.6 µM [inhibitor, full curve, poor fit] |
| COC(=O)c1ccc(NC(=O)c2cccc(NC(=O)c3ccccc3)c2)cc1 | inconclusive: 100 µM [inhibitor, single point] |
| CCN(C(=O)C(=O)Nc1ccc2nc3n(c(=O)c2c1)CCCCC3)c1ccc(F)cc1 | inactive |
| COc1ccc(-c2nnc(SC(C)C(=O)Nc3cccc(Cl)c3)o2)cc1 (stereo not drawn) | inactive |
| CO/N=C/C(=N\Nc1ccc(OC)cc1)C(=O)c1ccc(OC)cc1 | active: 35.5 µM |
| Cc1ccc(CNC(=O)C2CCCN(S(=O)(=O)c3ccc(-n4cnnn4)cc3)C2)cc1 (stereo not drawn) | inactive |
| Cc1nn(C(C)C(=O)NC2CCCCC2)c(=O)c2c1sc1ccccc12 (stereo not drawn) | inconclusive: 28.2 µM [inhibitor, single point] |
| Nc1cc2c(cc1[N+](=O)[O-])OCCOCCOCCO2 | inconclusive: 0.282 µM [inhibitor, partial curve, poor fit] |
| CN(C)C(=O)c1ccc(OCC(F)(F)F)nc1 | inactive |
| O=C(CSC1CS(=O)(=O)c2cc([N+](=O)[O-])ccc21)NNC(=O)c1ccccc1 (stereo not drawn) | inconclusive: 79.4 µM [inhibitor, partial curve, poor fit] |
| COCC(=O)Nc1nnc(SCC(=O)N2CCCCC2)s1 | inconclusive: 89.1 µM [inhibitor, single point] |
| CSc1ccc(S(=O)(=O)NCC(=O)OC2CCOC2=O)cc1[N+](=O)[O-] (stereo not drawn) | inconclusive: 79.4 µM [inhibitor, partial curve, poor fit] |
